According to PubChem BioAssay AID1159614 (National Center for Advancing Translational Sciences (NCATS), 2016):
Screen size: about 45,000 compounds; about 65 (0.1%) were called active. Calls come from the whole dose curve; as a rule, active = well fitted activation curve with a large enough effect; inconclusive = small, poorly fitted or top-dose-only effect; inactive = no such curve, though single readings can be large or run the other way. This is one part of the list.

Biological target: Galactocerebrosidase (Homo sapiens) (UniProt P54803)
Assay: A Novel Cell-Based Assay to Identify Small Molecules for B -Galactocerebrosidase; note: 0% is about no effect; nearly all actives have a fitted effect of over 65% in size
Settings: 145M-Twi-hGALC-G270D cells (Twitcher mouse brain line with human GALC G270D), HMU-beta-Gal fluorescence, 48 h; series mostly up to 57.5 µM; activation: at the top concentration
In short: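 Fluorogenic HMU-b-Gal hydrolysis (0.1 mM final, pH 5.2 citrate-phosphate with 1 mg/mL sodium taurocholate; carbonate stop buffer) measures mutant GALC activity after compound treatment of live 145M-Twi Twitcher brain cells stably carrying human GALC-G270D, with wild-type GALC line alongside; activation sought.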

Chain of UniProt P54803 (P54803 whole entry, looked up): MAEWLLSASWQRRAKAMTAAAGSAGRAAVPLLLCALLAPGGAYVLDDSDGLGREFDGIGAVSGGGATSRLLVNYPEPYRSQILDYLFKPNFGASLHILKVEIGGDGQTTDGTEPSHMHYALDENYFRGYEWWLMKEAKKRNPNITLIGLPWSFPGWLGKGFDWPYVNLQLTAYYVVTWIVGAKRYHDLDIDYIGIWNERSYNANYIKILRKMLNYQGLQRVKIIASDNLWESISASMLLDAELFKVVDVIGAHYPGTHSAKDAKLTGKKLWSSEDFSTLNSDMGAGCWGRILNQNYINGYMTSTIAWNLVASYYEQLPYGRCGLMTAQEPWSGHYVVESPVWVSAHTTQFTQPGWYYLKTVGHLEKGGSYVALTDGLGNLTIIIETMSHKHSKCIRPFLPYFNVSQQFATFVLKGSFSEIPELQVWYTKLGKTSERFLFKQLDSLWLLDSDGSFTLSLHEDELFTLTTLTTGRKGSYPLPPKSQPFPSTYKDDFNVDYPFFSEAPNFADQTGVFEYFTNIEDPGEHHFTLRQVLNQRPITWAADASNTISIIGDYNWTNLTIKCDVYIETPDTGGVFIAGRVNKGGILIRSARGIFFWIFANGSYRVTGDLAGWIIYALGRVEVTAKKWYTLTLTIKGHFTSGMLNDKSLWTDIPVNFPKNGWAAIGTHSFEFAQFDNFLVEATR

activation, inactive:
CCc1ccc(S(=O)(=O)N(C(C)=O)c2ccc3oc4c(c3c2)CCCC4)cc1 -26.7%
CCOc1ccc(C2c3c(oc4cc(C)c(C)cc4c3=O)C(=O)N2c2ccccn2)cc1 (stereo not given) -9.29%
CCC(C(=O)Nc1cc(C)ccc1OC)n1nnc(C(=O)OC)c1C(=O)OC (stereo not given) -16.6%
COc1ccc(NS(=O)(=O)c2ccc3c(c2)NC(=O)CCS3)c(OC)c1 -7.59%
CC(=O)Nc1cccc(NC(=O)Cc2csc(COc3cccc(C)c3)n2)c1 -9.19%
CCOC(=O)N1CCc2c(sc3c2c(=O)n(-c2ccc(CC)cc2)c(=O)n3Cc2cccc(OC)c2)C1 -3.43%
COc1ccccc1N1CCN(S(=O)(=O)c2ccc(-n3cnnn3)cc2)CC1 5.75%
O=C(NCCN1CCCCC1)c1ccc(Cn2c(SCc3ccc(F)cc3)nc3cccnc32)cc1 -10.7%
CN(C)c1ccc(CN(Cc2ccco2)C(=O)c2ccc(F)cc2)cc1 -7.33%
COc1ccccc1CNC(=O)CCC(=O)N1Cc2ccccc2Oc2ncccc21 -20.3%
CC(=O)N1c2ccc(S(=O)(=O)NCC3CCC(C(=O)Nc4cc(C)cc(C)c4)CC3)cc2CC1C (stereo not given) 2.51%
Cc1ccc(-n2nc3c(N4CCC(C(=O)N(C)Cc5ccccc5)CC4)nnc(C)c3c2C)cc1 -8.8%
Cc1ccc(C)c(S(=O)(=O)n2nc(C)c(S(=O)(=O)N3CCC(C)CC3)c2C)c1 -6.05%
CC(=O)Nc1ccc(S(=O)(=O)Nc2nc3n(n2)C(c2ccccc2)C=C(c2ccc(Cl)cc2)N3)cc1 (stereo not given) -12.7%
O=C(CSc1ncc(-c2ccccc2)[nH]1)Nc1ccc(F)cc1F -12.6%
O=C(CCCCn1c(=O)c2ccccc2n(CC(=O)Nc2ccc(F)cc2F)c1=O)NCc1ccccc1Cl -0.649%
CN1CCN(C(=O)C(=O)Nc2c3c(nn2-c2cccc(Cl)c2)CSC3)CC1 -10.6%
COc1ccc(CCNC(=O)CSc2cn(CCNC(=O)c3ccccc3F)c3ccccc23)cc1OC -2.32%
CCCCOC(=O)Cn1nnc2sc(-c3ccccc3)cc2c1=O -13.5%
COc1ccc(Nc2cc(C(=O)NCc3cccs3)c3ccccc3n2)cc1 -12.7%
Clc1ccc(C(Cn2ccnc2)OCc2ccsc2Cl)c(Cl)c1 (stereo not given) -9.46%
COC(=O)c1c(SC)nc2ccccc2c1OCc1ccc(C)cc1 -0.53%
CCOC(=O)c1c(C)[nH]c(C)c1S(=O)(=O)N1CCCC(C(=O)NCc2ccc(C)cc2)C1 (stereo not given) -23.2%
CCc1ccccc1N1C(=O)N(CC(=O)c2ccc(Cl)cc2)c2ccccc2S1(=O)=O -17.5%
Cc1ccc(Cn2c(=O)n(CCc3ccccc3)c(=O)c3c(C)c(C)sc32)cc1 -0.661%
CCOc1ccc(C2=C(C(=O)CC)Sc3nncn3N2C(=O)CC)cc1 -3.7%
CCOC(=O)Cn1c(=O)oc2cc(S(=O)(=O)N3CCCC(C)C3)ccc21 (stereo not given) -14.5%
O=C(NCc1ccc(Cl)cc1)c1ccc2oc(=O)n(Cc3ccccc3)c2c1 8.74%
CCOC(=O)c1cc(S(=O)(=O)N2CCN(c3cccc(OC)c3)CC2)[nH]n1 -10%
CCCCn1cc(S(=O)(=O)c2ccc(Cl)cc2)c(=O)c2cc(F)c(N3CCCC(C)C3)cc21 (stereo not given) -18.8%
CCc1cnc2c(c1SCC(=O)Nc1ccc(OC)c(OC)c1)c(=O)n(C)c(=O)n2C -6.99%
COC(=O)c1c(-c2ccc(Cl)cc2)noc1N1CCN(c2cccc(C)c2C)CC1 -12.6%
CC1CCCN(C(=O)CCS(=O)(=O)c2cc3c(cc2Cl)NC(=O)CO3)C1 (stereo not given) -11%
Cc1ccc(C2c3c(-c4ccccc4O)n[nH]c3C(=O)N2CCc2ccccc2)cc1 (stereo not given) -20.1%
COc1cccc(CNC(=O)Cn2nc3c(cc2=O)CCCC3)c1OC -6.16%
CCOc1ccc(CNC(=O)Cn2cc3c(n2)-c2c(oc(C(=O)N4CCCC4)c2C)CC3)cc1 -2.38%
CCCC1=Nc2cc(C(=O)NCC(C)c3ccccc3)ccc2Sc2ccccc21 (stereo not given) -11.2%
CC(=O)N1c2c(cc(Br)cc2S(=O)(=O)Nc2ccc(OC(F)(F)F)cc2)CC1C (stereo not given) -20.3%
Cc1c(C(=O)OC2CCC(C)CC2)[nH]c2c1C(=O)CC(c1ccccc1Cl)C2 (stereo not given) -23.3%
CCOc1ccc(CCNC(=O)CCCc2nnc3n(C)c(=O)c4sccc4n23)cc1OCC -6.45%
COc1ccccc1CN(Cc1ccco1)c1cnc(S(C)(=O)=O)nc1C(=O)Nc1ccccc1Cl 2.33%
CCc1cccc(C)c1NC(=O)NC1COc2ccccc2C1 (stereo not given) 13%
CCNc1nc(NC(C)CC)nc(Oc2ccc(OCC)nn2)n1 (stereo not given) -30%
COc1ccc(NC(=O)NCc2c(-n3cccc3)sc3c2CCCC3)c(OC)c1 -16%
COc1ccc(OCC(=O)Nc2nc(-c3ccc(Br)cc3)ns2)cc1 -11.9%
O=C(Nc1ccc(Cl)cc1)c1cc(S(=O)(=O)N2CCCc3ccccc32)ccc1F -23.5%
Cc1cc(Cl)ccc1NC(=O)CN1C(=O)COc2ccc(S(=O)(=O)N3CCC(C)CC3)cc21 -8.8%
O=C(CCCn1c(=O)[nH]c2ccsc2c1=O)N1CCN(c2cccc(C(F)(F)F)c2)CC1 -8.87%
CCOC(=O)c1noc2ncn(Cc3cccc(C#N)c3)c(=O)c12 -24.2%
CCOC(=O)Cc1ccc(NC(=O)N(C(C)C)C2CCN(C(C)=O)CC2)cc1 -9.13%
COc1ccc(NCc2cc3cc4c(cc3n(CC(=O)Nc3ccccc3)c2=O)OCO4)cc1 -27.9%
COc1ccc(NC(=O)CSc2nc(-c3ccc(OC)c(OC)c3)[nH]c2-c2ccc(C)cc2)cc1 -14%
Cc1cc(=O)[nH]c2nnc(SCc3c(F)cccc3Cl)n12 -17%
Cc1nc2sccn2c(=O)c1S(=O)(=O)Nc1ccc(N2CCOCC2)cc1 -7.02%
Cc1c(Cl)cccc1NC(=O)CNS(=O)(=O)c1cccs1 -21.4%
Cc1ccc(C2CCN(C(=O)Nc3ccc(Cl)cc3)C2)cc1 (stereo not given) -0.335%
CSc1cccc(NC(=O)C2CCN(S(=O)(=O)c3ccc4c(c3)CCCN4C(=O)C3CCC3)CC2)c1 -16%
COc1ccc(N(CC(C)C)S(=O)(=O)c2nnc(NC(=O)c3cccs3)s2)cc1 -12.8%
CCCCCCCCCCCCCCC[C@H](O)[C@@H](N)CO 2.6%
CCOc1ccc2c(c1)sc1nc(=O)n(-c3ccc(Cl)c(Cl)c3)c(=O)n12 -3.34%
CCOC(=O)CCn1cnc2onc(-c3cc(OC)ccc3Cl)c2c1=O -18.6%
Cc1ccc(OCc2nc(-c3ccc(C(=O)N4CCN(c5cccc(C(F)(F)F)c5)CC4)cc3)oc2C)cc1 -9.22%
Cc1ccc(C(=O)N2CCc3cc(CNC(=O)c4ccc(Br)cc4)ccc32)cc1 -19.7%
Cc1ccc(C(=O)Nc2ccccc2)cc1S(=O)(=O)Nc1ccc(Br)cc1 -7.99%
Cc1cccc(NC(=O)c2ccc3c(O)c(S(=O)(=O)c4ccccc4)c(=O)[nH]c3c2)c1C -23.6%
Cc1ccccc1-c1nc(CS(=O)(=O)CC(=O)NCCc2ccccc2)c(C)o1 5.97%
COc1ccc(Cl)cc1NC(=O)CSc1nc2ccccc2c2nc(-c3ccccc3)nn12 -10.5%
O=C(Nc1ccc2nc(SCC(=O)N3CCc4ccccc43)sc2c1)c1cccc(F)c1 2.26%
COc1ccc(S(=O)(=O)N2CCN(Cc3ccc4c(c3)OCO4)CC2)cc1C -28.9%
Cc1cccc(C)c1NC(=O)C(=O)NCC(c1ccc2c(c1)OCO2)N1CCOCC1 (stereo not given) -8.99%
CCOC(=O)c1cnc2c(Cl)cc(Cl)cc2c1Nc1cc(C(=O)O)ccc1C -25.5%
COCCNC(=O)CCn1c(=O)c2cc(OC)c(OC)cc2n(CC(=O)Nc2ccccc2C)c1=O 5.85%
CS(=O)(=O)NCC(c1ccco1)N1CCN(c2ccc(F)cc2)CC1 (stereo not given) -14.5%
O=S(=O)(c1ccc(-c2cc(C(F)(F)F)on2)s1)N1CCN(c2ccccc2)CC1 -11.5%
O=C(Cn1ncn2nc(-c3cccs3)cc2c1=O)NCc1ccc(Cl)cc1 -24.5%
CCc1ccc(S(=O)(=O)c2nnn3c2nc(Nc2ccc(C)c(Cl)c2)c2sccc23)cc1 -15.4%
Cc1oc(-c2cccc(Cl)c2)nc1CN1CCCC(C(=O)NCCc2ccc(Cl)cc2)C1 (stereo not given) -38.4%
COCCCn1c(=N)c(C(=O)NCc2ccco2)cc2c(=O)n3cccc(C)c3nc21 -2.72%
CCOC(=O)c1c(NC(=O)COc2ccc(Br)cc2)sc2c1CCCC2 -16.4%
CCc1ccccc1NC(=O)Nc1cc(C(=O)NCc2cccc(F)c2)ccc1N1CCCC1 0.426%
CSc1cccc(NC(=O)Cn2c(=O)n(Cc3ccccc3)c(=O)c3sc4ccccc4c32)c1 -8.89%
CC(=O)Nc1cc(C(=O)NCc2ccc(C)cc2)ccc1S(=O)(=O)c1ccc(Cl)cc1 -11%
CCOC(=O)CN1C(C(=O)c2ccccc2)=C(OC(=O)C(C)(C)C)c2ccccc2S1(=O)=O -9.39%
CCn1c(SCc2cccc(Br)c2)nnc1-c1nonc1NC(C)=O -1.35%
CC(C)CNC(=O)C(=O)Nc1c2c(nn1-c1ccccc1)CS(=O)(=O)C2 -12.2%
CCn1ccc2cc(S(=O)(=O)N3CCC(C(=O)NCc4cccc(Cl)c4)CC3)ccc21 -11.9%
Cc1cc(C)c(NC(=O)c2cc(S(=O)(=O)NCCC3=CCCCC3)ccc2F)c(C)c1 -2.05%
Cc1ccc(-n2ncc(C(=O)NCCN3CCCC3)c2C2CCN(C(=O)OC(C)(C)C)CC2)cc1 0.992%
Cc1cc(C)n(-c2nc3cc(Cl)ccc3nc2Nc2ccc(C)c(F)c2)n1 -2.68%
COc1ccc(Cn2c(CCC(=O)Nc3ccc(C)cc3)nc3cccnc32)cc1 -9.44%
Cc1ccc(NC(=O)Cn2nnc3sc4c(c3c2=O)CCC(C)C4)cc1 (stereo not given) -4.64%
CCOc1ccccc1NC(=O)N1c2ccccc2Sc2ccccc21 1.33%
Cc1cccc(-n2ncc(C(=O)N3CCN(Cc4ccccc4)CC3)c2C2CCN(C(=O)OC(C)(C)C)CC2)c1 -11.5%
CCOc1ccc(N(C)S(=O)(=O)c2c(C(=O)N3CCC(C)CC3)c(C)n(C)c2C)cc1 -7.87%
Cc1ccc2oc(C(=O)Nc3ccc(S(=O)(=O)N(C)c4ccccc4)cc3)cc(=O)c2c1 -20.3%
